# Assay results as given in publication PMC12820563, “FoxP3 forms a head-to-head dimer in vivo and stabilizes its multimerization on adjacent microsatellites”.
# The other results are listed elsewhere or left out.
# Biological target: T1, MBP-FoxP1dN (Mus musculus, UniProt P58462 326-579)
# T1 sequence: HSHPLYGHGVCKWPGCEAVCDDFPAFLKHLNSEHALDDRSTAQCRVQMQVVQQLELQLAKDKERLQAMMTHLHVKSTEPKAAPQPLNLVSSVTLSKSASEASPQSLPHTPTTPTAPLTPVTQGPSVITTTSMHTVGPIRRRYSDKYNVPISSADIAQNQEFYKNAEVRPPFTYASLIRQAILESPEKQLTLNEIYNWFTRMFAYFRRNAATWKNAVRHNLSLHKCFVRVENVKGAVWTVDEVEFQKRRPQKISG
# Test: PD-seq (MBP pull-down with sequencing); 20 mM Tris-HCl pH 7.5, 100 mM NaCl, 1.5 mM MgCl2, 0.4 uM protein, 0.1 uM dsDNA library, 30 min, room temperature, amylose pull-down; high values mean tight binding
# Conditions: protein: recombinant; tags: His6-MBP; chain copies: 2; dsDNA, one strand shown
# Procedure, shortened: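 The N-terminus-lacking fragment of mouse FoxP3 or FoxP1 carried a His6-MBP tag and was expressed in E. coli. At 0.4 µM it was incubated with 0.1 µM Klenow-filled degenerate double-stranded DNA library for 30 min at room temperature in Tris pH 7.5 buffer with NaCl and MgCl2, and complexes were caught on amylose resin, washed three times, released with proteinase K, PCR-barcoded and Illumina-sequenced. Binding is reads-per-million enrichment of pull-down over input with replicates pooled.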
row,Sequence,binding signal
1,GATGATTGTTCTCCCAGCTGATGAATTCCCTAGGTCGAGTAAACAAATTTTCCTAATCTTTCTGTTCAAGCGCCATCTAC,0.768 RPM ratio (pull-down/input)
2,GATGATTGTTCTCCCAGCTGATGAATTCATGTGCTCGAGTAAACAAATTTTCCTAATCTTTCTGTTCAAGCGCCATCTAC,0.954 RPM ratio (pull-down/input)
3,GATGATTGTTCTCCCAGCTGATGAATTCTGGAAATCGAGTAAACAAATTTTCCTAATCTTTCTGTTCAAGCGCCATCTAC,0.932 RPM ratio (pull-down/input)
4,GATGATTGTTCTCCCAGCTGATGAATTATACGTATCGAGTAAACAAATTTTCCTAATCTTTCTGTTCAAGCGCCATCTAC,1.09 RPM ratio (pull-down/input)
5,GATGATTGTTCTCCCAGCTGATGAATTGACGTTCTCGAGTAAACAAATTTTCCTAATCTTTCTGTTCAAGCGCCATCTAC,1.09 RPM ratio (pull-down/input)
6,GATGATTGTTCTCCCAGCTGATGAATTGGAGTAGTCGAGTAAACAAATTTTCCTAATCTTTCTGTTCAAGCGCCATCTAC,0.835 RPM ratio (pull-down/input)
7,GATGATTGTTCTCCCAGCTGATGAATTAGGAGTTTCGAGTAAACAAATTTTCCTAATCTTTCTGTTCAAGCGCCATCTAC,0.859 RPM ratio (pull-down/input)
8,GATGATTGTTCTCCCAGCTGATGAATTTGTCCATTCGAGTAAACAAATTTTCCTAATCTTTCTGTTCAAGCGCCATCTAC,1.09 RPM ratio (pull-down/input)
9,GATGATTGTTCTCCCAGCTGATGAATTTTTCGCGTCGAGTAAACAAATTTTCCTAATCTTTCTGTTCAAGCGCCATCTAC,1.01 RPM ratio (pull-down/input)
10,GATGATTGTTCTCCCAGCTGATGAATTTAGATGATCGAGTAAACAAATTTTCCTAATCTTTCTGTTCAAGCGCCATCTAC,1.11 RPM ratio (pull-down/input)
11,GATGATTGTTCTCCCAGCTGATGAATTTTCGGCCTCGAGTAAACAAATTTTCCTAATCTTTCTGTTCAAGCGCCATCTAC,0.836 RPM ratio (pull-down/input)
12,GATGATTGTTCTCCCAGCTGATGAATTTACTTGCTCGAGTAAACAAATTTTCCTAATCTTTCTGTTCAAGCGCCATCTAC,1.28 RPM ratio (pull-down/input)
13,GATGATTGTTCTCCCAGCTGATGAATTACCTCCGTCGAGTAAACAAATTTTCCTAATCTTTCTGTTCAAGCGCCATCTAC,0.935 RPM ratio (pull-down/input)
14,GATGATTGTTCTCCCAGCTGATGAATTCCCGAGCTCGAGTAAACAAATTTTCCTAATCTTTCTGTTCAAGCGCCATCTAC,0.712 RPM ratio (pull-down/input)
15,GATGATTGTTCTCCCAGCTGATGAATTATATCTTTCGAGTAAACAAATTTTCCTAATCTTTCTGTTCAAGCGCCATCTAC,0.985 RPM ratio (pull-down/input)
16,GATGATTGTTCTCCCAGCTGATGAATTTGGGGAGTCGAGTAAACAAATTTTCCTAATCTTTCTGTTCAAGCGCCATCTAC,0.823 RPM ratio (pull-down/input)
17,GATGATTGTTCTCCCAGCTGATGAATTGCCTTCGTCGAGTAAACAAATTTTCCTAATCTTTCTGTTCAAGCGCCATCTAC,0.924 RPM ratio (pull-down/input)
18,GATGATTGTTCTCCCAGCTGATGAATTATACATCTCGAGTAAACAAATTTTCCTAATCTTTCTGTTCAAGCGCCATCTAC,1.13 RPM ratio (pull-down/input)
19,GATGATTGTTCTCCCAGCTGATGAATTCTACCTCTCGAGTAAACAAATTTTCCTAATCTTTCTGTTCAAGCGCCATCTAC,0.819 RPM ratio (pull-down/input)
20,GATGATTGTTCTCCCAGCTGATGAATTACACGCTTCGAGTAAACAAATTTTCCTAATCTTTCTGTTCAAGCGCCATCTAC,1.14 RPM ratio (pull-down/input)
21,GATGATTGTTCTCCCAGCTGATGAATTCAGGGGTTCGAGTAAACAAATTTTCCTAATCTTTCTGTTCAAGCGCCATCTAC,0.822 RPM ratio (pull-down/input)

row,Sequence,binding signal
1,GATGATTGTTCTCCCAGCTGATGAATTCGCGCGTTCGAGTAAACAAATTTTCCTAATCTTTCTGTTCAAGCGCCATCTAC,0.955 RPM ratio (pull-down/input)
2,GATGATTGTTCTCCCAGCTGATGAATTCCCATACTCGAGTAAACAAATTTTCCTAATCTTTCTGTTCAAGCGCCATCTAC,0.85 RPM ratio (pull-down/input)
3,GATGATTGTTCTCCCAGCTGATGAATTTACTTGATCGAGTAAACAAATTTTCCTAATCTTTCTGTTCAAGCGCCATCTAC,1.23 RPM ratio (pull-down/input)
4,GATGATTGTTCTCCCAGCTGATGAATTGAAGTGTTCGAGTAAACAAATTTTCCTAATCTTTCTGTTCAAGCGCCATCTAC,0.866 RPM ratio (pull-down/input)
5,GATGATTGTTCTCCCAGCTGATGAATTTCGACGCTCGAGTAAACAAATTTTCCTAATCTTTCTGTTCAAGCGCCATCTAC,0.91 RPM ratio (pull-down/input)
6,GATGATTGTTCTCCCAGCTGATGAATTGCCTGCTTCGAGTAAACAAATTTTCCTAATCTTTCTGTTCAAGCGCCATCTAC,0.91 RPM ratio (pull-down/input)
7,GATGATTGTTCTCCCAGCTGATGAATTTCCTTTATCGAGTAAACAAATTTTCCTAATCTTTCTGTTCAAGCGCCATCTAC,0.929 RPM ratio (pull-down/input)
8,GATGATTGTTCTCCCAGCTGATGAATTTTGTAATTCGAGTAAACAAATTTTCCTAATCTTTCTGTTCAAGCGCCATCTAC,1.09 RPM ratio (pull-down/input)
9,GATGATTGTTCTCCCAGCTGATGAATTTAAATCTTCGAGTAAACAAATTTTCCTAATCTTTCTGTTCAAGCGCCATCTAC,0.91 RPM ratio (pull-down/input)
10,GATGATTGTTCTCCCAGCTGATGAATTAGGCTCCTCGAGTAAACAAATTTTCCTAATCTTTCTGTTCAAGCGCCATCTAC,0.819 RPM ratio (pull-down/input)
11,GATGATTGTTCTCCCAGCTGATGAATTCAAACGCTCGAGTAAACAAATTTTCCTAATCTTTCTGTTCAAGCGCCATCTAC,0.938 RPM ratio (pull-down/input)
12,GATGATTGTTCTCCCAGCTGATGAATTCTTCGTATCGAGTAAACAAATTTTCCTAATCTTTCTGTTCAAGCGCCATCTAC,0.959 RPM ratio (pull-down/input)
13,GATGATTGTTCTCCCAGCTGATGAATTGCGTCTTTCGAGTAAACAAATTTTCCTAATCTTTCTGTTCAAGCGCCATCTAC,1.15 RPM ratio (pull-down/input)
14,GATGATTGTTCTCCCAGCTGATGAATTGGGGTCATCGAGTAAACAAATTTTCCTAATCTTTCTGTTCAAGCGCCATCTAC,0.891 RPM ratio (pull-down/input)
15,GATGATTGTTCTCCCAGCTGATGAATTCCGTGTCTCGAGTAAACAAATTTTCCTAATCTTTCTGTTCAAGCGCCATCTAC,0.846 RPM ratio (pull-down/input)
16,GATGATTGTTCTCCCAGCTGATGAATTCCCACTTTCGAGTAAACAAATTTTCCTAATCTTTCTGTTCAAGCGCCATCTAC,0.873 RPM ratio (pull-down/input)
17,GATGATTGTTCTCCCAGCTGATGAATTGACTGAGTCGAGTAAACAAATTTTCCTAATCTTTCTGTTCAAGCGCCATCTAC,1.03 RPM ratio (pull-down/input)
18,GATGATTGTTCTCCCAGCTGATGAATTGTAAGTTTCGAGTAAACAAATTTTCCTAATCTTTCTGTTCAAGCGCCATCTAC,0.989 RPM ratio (pull-down/input)
19,GATGATTGTTCTCCCAGCTGATGAATTTCCCATCTCGAGTAAACAAATTTTCCTAATCTTTCTGTTCAAGCGCCATCTAC,0.808 RPM ratio (pull-down/input)
20,GATGATTGTTCTCCCAGCTGATGAATTCCGTTCATCGAGTAAACAAATTTTCCTAATCTTTCTGTTCAAGCGCCATCTAC,0.85 RPM ratio (pull-down/input)
21,GATGATTGTTCTCCCAGCTGATGAATTGAAAATGTCGAGTAAACAAATTTTCCTAATCTTTCTGTTCAAGCGCCATCTAC,0.884 RPM ratio (pull-down/input)

row,Sequence,binding signal
1,GATGATTGTTCTCCCAGCTGATGAATTACAATTATCGAGTAAACAAATTTTCCTAATCTTTCTGTTCAAGCGCCATCTAC,1.51 RPM ratio (pull-down/input)
2,GATGATTGTTCTCCCAGCTGATGAATTACGCGGTTCGAGTAAACAAATTTTCCTAATCTTTCTGTTCAAGCGCCATCTAC,1.01 RPM ratio (pull-down/input)
3,GATGATTGTTCTCCCAGCTGATGAATTTTACGCGTCGAGTAAACAAATTTTCCTAATCTTTCTGTTCAAGCGCCATCTAC,1.02 RPM ratio (pull-down/input)
4,GATGATTGTTCTCCCAGCTGATGAATTGTAGCTATCGAGTAAACAAATTTTCCTAATCTTTCTGTTCAAGCGCCATCTAC,1.13 RPM ratio (pull-down/input)
5,GATGATTGTTCTCCCAGCTGATGAATTGACTAACTCGAGTAAACAAATTTTCCTAATCTTTCTGTTCAAGCGCCATCTAC,1.11 RPM ratio (pull-down/input)
6,GATGATTGTTCTCCCAGCTGATGAATTCAACCAATCGAGTAAACAAATTTTCCTAATCTTTCTGTTCAAGCGCCATCTAC,1.04 RPM ratio (pull-down/input)
7,GATGATTGTTCTCCCAGCTGATGAATTTAGCAGATCGAGTAAACAAATTTTCCTAATCTTTCTGTTCAAGCGCCATCTAC,0.929 RPM ratio (pull-down/input)
8,GATGATTGTTCTCCCAGCTGATGAATTTAGACATTCGAGTAAACAAATTTTCCTAATCTTTCTGTTCAAGCGCCATCTAC,1.1 RPM ratio (pull-down/input)
9,GATGATTGTTCTCCCAGCTGATGAATTCTTAGTTTCGAGTAAACAAATTTTCCTAATCTTTCTGTTCAAGCGCCATCTAC,0.891 RPM ratio (pull-down/input)
10,GATGATTGTTCTCCCAGCTGATGAATTAAAACCCTCGAGTAAACAAATTTTCCTAATCTTTCTGTTCAAGCGCCATCTAC,0.814 RPM ratio (pull-down/input)
11,GATGATTGTTCTCCCAGCTGATGAATTCCTAACTTCGAGTAAACAAATTTTCCTAATCTTTCTGTTCAAGCGCCATCTAC,0.799 RPM ratio (pull-down/input)
12,GATGATTGTTCTCCCAGCTGATGAATTTGTGGTATCGAGTAAACAAATTTTCCTAATCTTTCTGTTCAAGCGCCATCTAC,1.23 RPM ratio (pull-down/input)
13,GATGATTGTTCTCCCAGCTGATGAATTGCTATGGTCGAGTAAACAAATTTTCCTAATCTTTCTGTTCAAGCGCCATCTAC,1.02 RPM ratio (pull-down/input)
14,GATGATTGTTCTCCCAGCTGATGAATTGGGAACATCGAGTAAACAAATTTTCCTAATCTTTCTGTTCAAGCGCCATCTAC,0.954 RPM ratio (pull-down/input)
15,GATGATTGTTCTCCCAGCTGATGAATTCGGTTGATCGAGTAAACAAATTTTCCTAATCTTTCTGTTCAAGCGCCATCTAC,1 RPM ratio (pull-down/input)
16,GATGATTGTTCTCCCAGCTGATGAATTTGGACCTTCGAGTAAACAAATTTTCCTAATCTTTCTGTTCAAGCGCCATCTAC,0.87 RPM ratio (pull-down/input)
17,GATGATTGTTCTCCCAGCTGATGAATTTTGGCATTCGAGTAAACAAATTTTCCTAATCTTTCTGTTCAAGCGCCATCTAC,1.15 RPM ratio (pull-down/input)
18,GATGATTGTTCTCCCAGCTGATGAATTTACGTCATCGAGTAAACAAATTTTCCTAATCTTTCTGTTCAAGCGCCATCTAC,1.45 RPM ratio (pull-down/input)
19,GATGATTGTTCTCCCAGCTGATGAATTCCTTCAGTCGAGTAAACAAATTTTCCTAATCTTTCTGTTCAAGCGCCATCTAC,0.852 RPM ratio (pull-down/input)
20,GATGATTGTTCTCCCAGCTGATGAATTTTTTTGGTCGAGTAAACAAATTTTCCTAATCTTTCTGTTCAAGCGCCATCTAC,0.952 RPM ratio (pull-down/input)
21,GATGATTGTTCTCCCAGCTGATGAATTCACTGTCTCGAGTAAACAAATTTTCCTAATCTTTCTGTTCAAGCGCCATCTAC,0.888 RPM ratio (pull-down/input)
